The structures appear in SMILES notation. Screen size: about 46,000 compounds; about 60 (0.1%) were called active. Another 3% or so got no clear call; they are omitted. Calls follow the shape of the dose curve; as a rule, active = well fitted inhibition curve with a large enough effect; inconclusive = small, poorly fitted or top-dose-only effect; inactive = no such curve, though single readings can be large or run the other way. Some of the results follow.

This assay in a line: Primary qHTS assay for Inhibitors of ovarian cancer metastasis using an organotypic tumor microenvironment (TME) model. Also: nearly all actives have a fitted effect of over 65% in size.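 As to activity change, negative = inhibition: plate controls were DMSO wells for no effect and tomatine positive control wells for full effect.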 The settings on record: SKOV3ip1-GFP adhesion/invasion on 3D omental model, fluorescence; series mostly up to 45.8 µM; activity change, negative = inhibition: at the top concentration. Summed up: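 qHTS, 4-pt dose (0.36-46 umol/L); SKOV3ip1-GFP, 1,200 cells/well, no FBS; primary omental fibroblast/mesothelial co-culture 48 h pre-grown; 2 h RT + 16 h 37 C; PBS wash, 4% PFA; GFP count 488/509 nm.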
As to `CCOc1ccc(CCNC(=O)CS(=O)Cc2nc(-c3ccc(C)cc3)oc2C)cc1OCC` (stereo unspecified), the compound was called inactive.
As for `Cc1ccc(Cn2ccn(CC(=O)Nc3ccccc3C(F)(F)F)c(=O)c2=O)cc1`, the “activity change, negative = inhibition” value is inactive: -6.71%.
With `COc1ccccc1CNC(=O)C1CCCN(c2nn3cc(-c4ccc(F)cc4)nc3s2)C1` (stereo unspecified), the compound was called inactive.
`CCOCCc1nn2c(=O)cc(COC(=O)COc3ccccc3Cl)nc2s1`: the “activity change, negative = inhibition” value was inactive: 4.08%.
Take `Cc1cc(Cl)ccc1NC(=O)CN1C(=O)CSc2ccc(S(=O)(=O)N(C)C)cc21`: the result was inactive.
For the compound `COc1ccccc1CNC(=O)CCc1c(C)nc2cc(-c3ccccc3OC)nn2c1C`, the “activity change, negative = inhibition” value is inactive: -0.264%.
The same measure, in the same setting: next, `Cc1ccc(NC(=O)CN2CCCN(Cc3ccccc3Cl)S2(=O)=O)c(C)c1`: inactive: -2.04%; `COc1ccc(CNC(=O)Cn2ccc3cc(S(=O)(=O)N4CCCCC4)ccc32)c(OC)c1`: inactive: 5.17%.
Regarding `CC(=O)c1ccc(NC(=O)c2ccc3c(c2)N(Cc2cccc(Cl)c2)C(=O)c2ccccc2S3(=O)=O)cc1`, the outcome was inactive.
Take `CCOc1ccccc1NC(=O)Cn1c(=O)n(CCCC(=O)NCCOC)c(=O)c2cc(OC)c(OC)cc21`: the “activity change, negative = inhibition” value is inactive: 9%.
The same measure, in the same setting: in the case of `CCOC(=O)c1c(C)[nH]c(C)c1S(=O)(=O)N1CCC(C(=O)Nc2ccc(F)cc2F)CC1` it was inactive: 16.4%; in that of `COC(=O)c1ccccc1NC(=O)CSc1nc(-c2ccccc2)cc(C(F)(F)F)n1`, inactive: -10.9%.
Regarding `CC(C)c1nn2c(=O)cc(COC(=O)CNC(=O)c3ccccc3Cl)nc2s1`, the call was inactive.
Consider `O=C(Cn1ccn(-c2ccc(F)c(F)c2)c(=O)c1=O)c1ccc(F)cc1`, for which the “activity change, negative = inhibition” value was inactive: -5.78%.
Regarding `CCN1CCN(c2nnc(-n3cccc3C(=O)Nc3cccc(OC)c3)s2)CC1`, the result was inactive.
For the compound `COc1ccc(C2CC(=O)c3c(C)nc(N4CCN(C=O)CC4)nc3C2)c(OC)c1` (stereo unspecified), the outcome was inactive.
On the same count and under the same terms, in the case of `CCn1c(=O)sc2cc(NC(=O)c3cccc(OC)c3)ccc21` it was “inactive”.
On to `CCC(C)n1c(SCc2ccc(C(C)(C)C)cc2)nc2ccsc2c1=O` (stereo unspecified), for which the result was inactive.
In the case of `Cc1nnc(NC(=O)CSc2nccn2-c2ccc(Cl)cc2)s1`, the “activity change, negative = inhibition” value is inactive: 1.98%.
Take `CCOc1ccc(Cn2c(CNS(=O)(=O)c3c(C)cc(C)cc3C)nc3cccnc32)cc1`: the “activity change, negative = inhibition” value is inactive: -0.445%.
On the same count and under the same terms, in the case of `O=S(=O)(c1ccccc1)c1nc(-c2cccs2)oc1SCc1ccccc1Cl` it was inactive: 9.59%.
`Cc1ccc(OCc2nc(-c3ccc(C(=O)N4CCN(c5cc(Cl)ccc5C)CC4)cc3)oc2C)cc1`: the “activity change, negative = inhibition” value was inactive: -2.44%.
On to `Cc1ccc(Cl)cc1N1CCN(C(=O)c2cc3c(=O)n(C)c4ccccc4c3s2)CC1`, for which the “activity change, negative = inhibition” value was inactive: 5.61%.
Turning to `CCOc1ccccc1NC(=O)CSc1nc2c([nH]c3ccccc32)c(=O)n1-c1ccccc1`, the outcome was inactive.
Consider `O=C(CC1NCCNC1=O)Nc1ccccc1F` (stereo unspecified), for which the “activity change, negative = inhibition” value was inactive: 19%.
On the same count and under the same terms, next, `COC(=O)c1ccc(C(=O)OC)c(NC(=O)N2CC3CCCN3c3ccccc32)c1` (stereo unspecified): inactive: 2.32%.
For the compound `CS(=O)(=O)c1cccc(CNc2nc(Nc3ccc4c(c3)CCC(=O)N4)ncc2C(F)(F)F)c1`, the “activity change, negative = inhibition” value is inactive: 42.9%.
As to `CCOC(=O)CC(=O)CSc1nc2ccccc2c(=O)n1-c1ccc(C(=O)NCCOC)cc1`, the “activity change, negative = inhibition” value is inactive: 6.82%.
As for `Cc1cccc(OCC(=O)OCc2cc(=O)n3nc(-c4cccs4)sc3n2)c1`, the compound was called inactive.
Turning to `Cc1ccc(CSc2ccc3nnc(CCNS(=O)(=O)c4ccc(C)cc4)n3n2)cc1`, the result was inactive.
Consider `O=C(C1CC1)N1CCc2cc(Br)cc(S(=O)(=O)N3CCN(c4cccc(Cl)c4)CC3)c21`, for which the “activity change, negative = inhibition” value is inactive: 9.85%.
In the case of `CCOC(=O)c1cc(-c2ccccc2)n(-c2cccc(C(=O)Nc3cccc(C)c3)c2)c1C`, the result was inactive.
For the compound `Cc1ccc2nc(COc3cccc(NC(=O)COc4ccccc4F)c3)cc(=O)n2c1`, the “activity change, negative = inhibition” value is inactive: -5.64%.
On the same count and under the same terms, next, `COC(=O)c1ccccc1NC(=O)Cn1c(=O)nc(-c2ccccc2)c2cc(Cl)ccc21`: inactive: 5.56%.
For the compound `COc1ccc(Nc2c(-c3ccc(C)o3)nc3ccc(Cl)cn23)cc1`, the “activity change, negative = inhibition” value was inactive: -1.98%.
Same read-out and setting: next, `Cc1ccc(NC(=O)c2cc(S(=O)(=O)N3CCCc4ccccc43)ccc2F)cc1F`: inactive: -6.39%; `Cc1ccc(-n2ncc(C(=O)N3CCN(c4ccccn4)CC3)c2C2CCN(C(=O)OC(C)(C)C)CC2)cc1`: inactive: 1.1%; `CCC(C)NC(=O)Cn1c(=O)n(-c2ccc(Cl)c(Cl)c2)c(=O)c2c(C)c(C(=O)N(CC)CC)sc21` (stereo unspecified): inactive: 5.26%.
`NCC1CCC(C(=O)O)CC1` (stereo unspecified): the “activity change, negative = inhibition” value is inactive: 1.31%.
Still for that read-out and setting: in the case of `CC1(C)CCC(CN2CCN(c3ccc(C(=O)NS(=O)(=O)c4ccc(NCC5CCOCC5)c([N+](=O)[O-])c4)c(Oc4cnc5[nH]ccc5c4)c3)CC2)=C(c2ccc(Cl)cc2)C1` it was inactive: 22.1%.
On to `CCc1nn(Cc2cccc(F)c2)c(=O)c2cc3cc(C)ccc3n12`, for which the call was inactive.
For `CCCCC(=O)Nc1cc2nn(-c3ccc(OCC)cc3)nc2cc1C`, the “activity change, negative = inhibition” value was inactive: 3.5%.
For `Cc1cccc(C)c1Nc1c(-c2cccs2)nc2ncccn12`, the “activity change, negative = inhibition” value is inactive: -5.4%.
In the case of `Cc1cccc(OCCSc2nc3ccc(NC(=O)c4cccs4)cc3s2)c1`, the “activity change, negative = inhibition” value was inactive: 1.16%.
Still for that read-out and setting: next, `CS(=O)(=O)N1CCC(n2c(C(F)(F)F)nc3cccnc32)CC1`: inactive: 5.55%.
On to `Cn1c(=O)c2c(SCC(=O)NCC3CCCO3)nc(-c3cccc(F)c3)nc2n(C)c1=O` (stereo unspecified), for which the “activity change, negative = inhibition” value was inactive: 7.25%.

The record behind these values is PubChem BioAssay AID1963576 (National Center for Advancing Translational Sciences (NCATS), 2024).
